Read counts are not given, so values of variants with three or more changes are uncertain.
B1: CPEB3 Ribozyme (parent)
chain: UAACAGGGGGCCACAGCAGAAGCGUUCACGUCGCAGCCCCUGUCAGAUUCUGGUGAAUCUGCGAAUUCUGCUGUAUAUCUC

Variants of: B1
Assay: self-cleavage, relative activity (ratio to wild type); higher = more cleavage; in vitro, sequencing
Procedure, shortened: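 Libraries of CPEB3 self-cleaving ribozyme mutants came from rounds of error-prone PCR and carried barcodes, which DNA sequencing matched to variants. In vitro transcription used T7 RNA polymerase at 37°C for 5 hours, with a further 15 min in DNase I before EDTA stopped the reaction; the ribozymes cleaved during both steps. The RNA was reverse transcribed with template switching and sequenced on Illumina. Relative activity is the cleaved/total read fraction of a variant divided by that of the unmutated ribozyme, averaged over three batches with at least 5 reads.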
With UAACAGGGGGCCACAGCAGAAGCGUUCACGUCGCAGCCCCAGUCAGAUUCAGGUGAAUCUGGGAAUUCUGCUGUAUAUCUC the self-cleavage was 0.43.
UAACAGGGGGCCACAGCAGAAGCGUUCACGUCGCAGCCCCAGUCAGAUUCUGGUGAGUCUGCGAAUUCUGCAGAAUAUCUC showed a self-cleavage of 0.25.
Work on UAACAGGGGGCCACAGCAGAAGCGUUCACGUCGCAGCCCCAGUCAGAUUCUGGUGAAUCUGCGAACUCUGCUGAAUAUCUC yielded a self-cleavage of 0.05.
UAACAGGGGGCCACAGCAGAAGCGUUCACGUCGCAGCCCCAGUCAGACUCUGGUGAAUCUGCGAGUUCUGCUGUAUAUCUC gave a self-cleavage of 0.14.
UAACAGGGGGCCACAGCAGAAGCGUUCACGUCGCAGCCCCAGUCAGACUCUGGUGAAUCUUCGAAUUCUGCUGUAUAUCUC gave a self-cleavage of 0.14.
In the case of UAACAGGGGGCCACAGCAGAAGCGUUCACGUCGCAGCCCCAGUCAGAUUCUGGUGAGCCUGCGAAUUCUGCUGUAUAUCUC, the self-cleavage is reported as 0.14.
Work on UAACAGGGGGCCACAGCAGAAGCGUUCACGUCGCAGCCCCAGGCAGAUUCUGGUGAGUCUGCGAAUUCUGCUGUAUAUCUC yielded a self-cleavage of 0.28.
For UAACAGGGGGCCACAGCAGAAGCGUUCACGUCGCAGCCCCAGUCAGAUUCUGGUGAAUCUGCGAAUACUGCUGUGUAUCUC, the self-cleavage was 0.04.
Variant UAACAGGGGGCCACAGCAGAAGCGUUCACGUCGCAGCCCUUGUCAGAUUCCGGUGAGUCUGCGGAUUCUGCUGUAUAUCUC has a self-cleavage of 0.38.
In the case of UAACAGGGGGCCACAGCAGAAGCGUUCACGUCGCAGCCCCAGUCAGAUUCUGGUGAGUCUGCGAAUUCUGCAGUAUAUCCC, the self-cleavage is reported as 0.04.
Work on UAACAGGGGGCCACAGCAGAAGCGUUCACGUCGCAGCCCUUGUCAGAUCCUGGUGAAUCUGCGAAUUCUGCUGUAUGUCUC yielded a self-cleavage of 0.3.
For UAACAGGGGGCCACAGCAGAAGCGUUCACGUCGCAGCCCCAGUCAGAUUCUGGUGGAUCUGUGAAUUCUGCUGUAUUUCUC, the self-cleavage was 0.16.
In the case of UAACAGGGGGCCACAGCAGAAGCGUUCACGUCGCAGCCCCAGUCAGUUACUGGUGAAUCUGCGAAUUCUGCAGUAUAUCUC, the self-cleavage is reported as 0.15.
UAACAGGGGGCCACAGCAGAAGCGUUCACGUCGCAGCCCCAGUCGGAUUCUGGUGAAUCUGCGAAUUCUGCUGUACAUCUC showed a self-cleavage of 0.23.
Variant UAACAGGGGGCCACAGCAGAAGCGUUCACGUCGCAGCCCCAGUCAGAUUCGGGUGAAUCUGCGUAUUCUGCUGUAUAUCUC has a self-cleavage of 0.12.
With UAACAGGGGGCCACAGCAGAAGCGUUCACGUCGCAGCCCCAGUCAGACUCUGGUGAAUCUGCGAAAUCUGCAGUAUAUCUC the self-cleavage was 0.07.
UAACAGGGGGCCACAGCAGAAGCGUUCACGUCGCAGCCCCAGUCAGAUCCUGGUGGAUCUGCGAAUCCUACUGUAUAUCCC showed a self-cleavage of 0.09.
Variant UAACAGGGGGCCACAGCAGAAGCGUUCACGUCGCAGCCCCAGCCAGAUACUGGUGAAUCUGCGAAUUCUGCUGUAUAUCUC has a self-cleavage of 0.15.
For UAACAGGGGGCCACAGCAGAAGCGUUCACGUCGCAGCCCCAGUCAGAUUCUGGUGAAUCUGCGAGUUCUGCUGCAUAUCUC, the self-cleavage was 0.16.
In the case of UAACAGGGGGCCACAGCAGAAGCGUUCACGUCGCAGCCCCCGUCGGAUCCUGGUGAAUCUGCGAAUUCUGCUGCAUAUCUC, the self-cleavage is reported as 0.35.
UAACAGGGGGCCACAGCAGAAGCGUUCACGUCGCAGCCCCAGUCAGAUUCAGGUGGAUCUGCGAAUUCUGCUGUAUAUCUC gave a self-cleavage of 0.1.
UAACAGGGGGCCACAGCAGAAGCGUUCACGUCGCAGCCCCAGUCAGAUUCUGGUGUAUCUGCGAACUCUGCUGUAUAUCUC showed a self-cleavage of 0.12.
Work on UAACAGGGGGCCACAGCAGAAGCGUUCACGUCGCAGCCCCAGUCAGAUUCUGGCGAAUCUGCGAAUUCUGCUGUAUUUCUC yielded a self-cleavage of 0.22.
In the case of UAACAGGGGGCCACAGCAGAAGCGUUCACGUCGCAGCCCCAGUCAGAUUCUGGCGAAUCUGCGAAUGCUGCUGUAUAUCUC, the self-cleavage is reported as 0.08.
UAACAGGGGGCCACAGCAGAAGCGUUCACGUCGCAGCCCCCGUCUGAUUCUAGUGAAUCUGCGAAUACUGCUGUAUAUCUC gave a self-cleavage of 0.42.
UAACAGGGGGCCACAGCAGAAGCGUUCACGUCGCAGCCCCAGCCAGAUUCUGGUGAAUCUGCGAAUUCUGCUGUAAAUCUC gave a self-cleavage of 0.2.
UAACAGGGGGCCACAGCAGAAGCGUUCACGUCGCAGCCCCAGUCAGAUUCUGGUGAAUCGGCGAAUUCUGCUGUAUUUCUC gave a self-cleavage of 0.14.
UAACAGGGGGCCACAGCAGAAGCGUUCACGUCGCAGCCCCAGUCAGAUACUGGUGGAUCUGCGAAUUCUGCUGAAUAUCUC gave a self-cleavage of 0.09.
For UAACAGGGGGCCACAGCAGAAGCGUUCACGUCGCAGCCCCAGCCAGAUUCUGGUGAAUCGGCGAAUUCUGCUGUAUGUCUC, the self-cleavage was 0.1.
For UAACAGGGGGCCACAGCAGAAGCGUUCACGUCGCAGCCCCCGUCUGAUUCUGGUGAAUCUGCGAGUUCUGCUGUAUAUCUC, the self-cleavage was 0.28.
For UAACAGGGGGCCACAGCAGAAGCGUUCACGUCGCAGCCCCAGUCAGAUUCUGGCGAGUAUGCGAAUUCUGCUGUAUAUCUC, the self-cleavage was 0.15.
With UAACAGGGGGCCACAGCAGAAGCGUUCACGUCGCAGCCCCCGUCUGAUUCUGGUGAAUCUGCGGAUUCUGCCGUAUAUCUC the self-cleavage was 0.32.
In the case of UAACAGGGGGCCACAGCAGAAGCGUUCACGUCGCAGCCCCAGUCAGAUUCUGGUGAAUCAGCGAAUCCUGCUAUAUAUCUC, the self-cleavage is reported as 0.43.
Variant UAACAGGGGGCCACAGCAGAAGCGUUCACGUCGCAGCCCCCGUCCGAUCCUGGUGAAUCUGCGAAUUCUGCAGUAUAUCUC has a self-cleavage of 0.09.
UAACAGGGGGCCACAGCAGAAGCGUUCACGUCGCAGCCCCAGUCAGAUUCCGGUGAAUCUGCGAAUUCCGCUGUAUAUCAC showed a self-cleavage of 0.18.
Work on UAACAGGGGGCCACAGCAGAAGCGUUCACGUCGCAGCCCUUGUCAGAUCCUGGUGGAUCUGCGAGUUCUGCUGUAUAUCUC yielded a self-cleavage of 0.2.
Variant UAACAGGGGGCCACAGCAGAAGCGUUCACGUCGCAGCCCCAGUCAGAUUCUGGUGAAUCUGCGGAUUCUGCAGUAUAUCUC has a self-cleavage of 0.23.
Variant UAACAGGGGGCCACAGCAGAAGCGUUCACGUCGCAGCCCCAGUCAGACUCUGGUGAAACAGCGAAUUCUGCUGUAUAUCUC has a self-cleavage of 0.08.
Work on UAACAGGGGGCCACAGCAGAAGCGUUCACGUCGCAGCCCCAGUCAGAUUCUGGUGAAUCUGCGAAUUCAGCUGUACAUCUC yielded a self-cleavage of 0.21.
Work on UAACAGGGGGCCACAGCAGAAGCGUUCACGUCGCAGCCCCAGUCAGAUUCUGGUGAAUCUGCGAAUUCAGCUGUAUGUCUC yielded a self-cleavage of 0.14.
For UAACAGGGGGCCACAGCAGAAGCGUUCACGUCGCAGCCCCAGUCAGAUCCUGGUGAAUCUGCGAAUUCUGCAGUAUAUCUC, the self-cleavage was 0.38.
For UAACAGGGGGCCACAGCAGAAGCGUUCACGUCGCAGCCCCAGUCAGAUUCUGGUGAAUCUGCGAAUACUGCAGUGUAUCUC, the self-cleavage was 0.15.
In the case of UAACAGGGGGCCACAGCAGAAGCGUUCACGUCGCAGCCCCAGUCAGGUUCUGGUGAAUCCGCGAAUUCUGCUGUAUAUCAC, the self-cleavage is reported as 0.11.
UAACAGGGGGCCACAGCAGAAGCGUUCACGUCGCAGCCCCAGUCAGAUUCUGGUGAACCCGCGGAUUCUGCUGUAUAUCUC gave a self-cleavage of 0.09.
In the case of UAACAGGGGGCCACAGCAGAAGCGUUCACGUCGCAGCCCCAGUCAGCUUCGGGUGAAUCUGCGAAUUCUGCAGUAUAUCUC, the self-cleavage is reported as 0.29.
For UAACAGGGGGCCACAGCAGAAGCGUUCACGUCGCAGCCCCAGUCAGAUCCUGGUGAACCUGCGAAUUCUGCCGUAUAUCUC, the self-cleavage was 0.16.
Work on UAACAGGGGGCCACAGCAGAAGCGUUCACGUCGCAGCCCCAGUCAGAUGCUGGUGAGUCUGCGAAUUCUGCUGUAUAUCUC yielded a self-cleavage of 0.36.
UAACAGGGGGCCACAGCAGAAGCGUUCACGUCGCAGCCCCAGUCAGAUUCUGGUGAAUCUGCGUAUUCCGCUGUAUACCUC gave a self-cleavage of 0.2.
UAACAGGGGGCCACAGCAGAAGCGUUCACGUCGCAGCCCCAGUCAGACUCUGGUGAAUCUGCGAAUUCUGCCGUAUAUCUC gave a self-cleavage of 0.21.
In the case of UAACAGGGGGCCACAGCAGAAGCGUUCACGUCGCAGCCCCCGUCUGGUUCUGGGGAAUCUGCGAAUUCCGCUGUGUAUCUC, the self-cleavage is reported as 0.05.
UAACAGGGGGCCACAGCAGAAGCGUUCACGUCGCAGCCCCAGUCAGAUUCUGGUGAUUCUGCGAAUUAUGCUGUUUAUCUC gave a self-cleavage of 0.06.
With UAACAGGGGGCCACAGCAGAAGCGUUCACGUCGCAGCCCCAGUCAGAUUCUGGUGAAUCCGCGUAUUCUGCUGUAUAUCUC the self-cleavage was 0.2.
Variant UAACAGGGGGCCACAGCAGAAGCGUUCACGUCGCAGCCCCAGUCAGAUUCUGGUGAAUCUGCGAAUUCUGCUGUAAAACUC has a self-cleavage of 0.54.
UAACAGGGGGCCACAGCAGAAGCGUUCACGUCGCAGCCCCAGUCGGAUUCUGGCGAAUCUGCGAAUUCGGCUGUAUAACUC showed a self-cleavage of 0.05.
UAACAGGGGGCCACAGCAGAAGCGUUCACGUCGCAGCCCCAUUCAGAUUCUGGUGAAUCUGCUAAUUCUGCUGUAUAUCUC showed a self-cleavage of 0.27.
Work on UAACAGGGGGCCACAGCAGAAGCGUUCACGUCGCAGCCCUUGUCAGAUUCUGGUGAAUCUGCGAAUUCUGCAGCAUAUCCC yielded a self-cleavage of 1.15.
Work on UAACAGGGGGCCACAGCAGAAGCGUUCACGUCGCAGCCCCAGUCAAAUUCUGGUGAAUCUGCGAAUUCUGCUGUGUAUCUC yielded a self-cleavage of 0.16.
UAACAGGGGGCCACAGCAGAAGCGUUCACGUCGCAGCCCCCGUCGAGUUCUGGUGAAUCAGCGAAUUCUGCUGUAUAUCUC gave a self-cleavage of 0.1.
In the case of UAACAGGGGGCCACAGCAGAAGCGUUCACGUCGCAGCCCUUGUCAGAUACUGGUGGAUCUGCGUAUUCUGCCGUAUAUCUC, the self-cleavage is reported as 0.1.
In the case of UAACAGGGGGCCACAGCAGAAGCGUUCACGUCGCAGCCCCAGCCAGAUUCUGGUGUAUCUGCGAAUUCUGCCGUAUAUCUC, the self-cleavage is reported as 0.17.
UAACAGGGGGCCACAGCAGAAGCGUUCACGUCGCAGCCCCAGUCAGACUCUGGUGAAUCUGCGAAUUCUGCUGUAUUUCUC showed a self-cleavage of 0.34.
UAACAGGGGGCCACAGCAGAAGCGUUCACGUCGCAGCCCCAGUCAGAUCCUUGUGAAUCUGCGAAUUCCGCUGUAUAUCCC gave a self-cleavage of 0.07.
Variant UAACAGGGGGCCACAGCAGAAGCGUUCACGUCGCAGCCCCCGUCGGAUUCUGGUGUAUCUGCGAAUUCUGCUGUAUAUCUC has a self-cleavage of 0.39.
UAACAGGGGGCCACAGCAGAAGCGUUCACGUCGCAGCCCCAGUCAGAUUCUGGUGAAUCUGCGAACUCUGCCGUAUAUCUC showed a self-cleavage of 0.24.
Variant UAACAGGGGGCCACAGCAGAAGCGUUCACGUCGCAGCCCUUGUCAGAUCCUGGUGAAUCUGCGAAUUCUGCUGUAUAUCAC has a self-cleavage of 0.4.
For UAACAGGGGGCCACAGCAGAAGCGUUCACGUCGCAGCCCCAGUCAGAUCCUGGCGAAUCAGCGAAUUCUGCCGUAUAUCUC, the self-cleavage was 0.13.
Work on UAACAGGGGGCCACAGCAGAAGCGUUCACGUCGCAGCCCUUGCCAGAUUCAGGUGAAUCUGCGAAUCCUGCUGUAUAUCUC yielded a self-cleavage of 0.08.
UAACAGGGGGCCACAGCAGAAGCGUUCACGUCGCAGCCCUUGUCAGAUUCUGGUGAAUCAGCGGAUUCUGCUGUAUAUCUC gave a self-cleavage of 0.15.

From the RNAGym collection of RNA variant scans (doi:10.1093/nar/gkz1192)
